{"source": "the supplement of paper PMC8728848", "binders": {"B1": {"name": "LBL-152 (Laetiporus bicolor), B0D650 (protein)", "chain": "MSNEYNPPLGIAFRLCGLASDRVLFSRVSPSPEVFHHPKSEVYPDQWFVAIPGSGQNAGCYAIKSKNTGKVLFSRMSPDPRVGHIDGDGKYPDNWFKFEAGSGKYAGYFRLRAVASDTVLVSRTSTGTDTQVINYPATSAKYDDQYFTILFDHHHHHH"}}, "experiment_in_all_cases": "glycan array binding signal (z-score within array); higher = stronger binding", "conditions_in_all_cases": "glycan notation: IUPAC condensed, linker removed", "key": {"[1]": {"biological_target": "Neu5Ac(a2-6)Gal(b1-4)GlcNAc(b1-2)Man(a1-3)[GlcNAc(b1-4)][Neu5Ac(a2-6)Gal(b1-4)GlcNAc(b1-2)Man(a1-6)]Man(b1-4)GlcNAc(b1-4)GlcNAc", "procedure,_shortened": "(§1)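 The Consortium for Functional Glycomics database supplied 3228 glycan arrays, of which those lacking an available protein sequence were dropped. The binding signal, a within-array Z-score, was averaged across arrays of the same protein sequence and across linkers. Negative scores can be read as non-binding.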"}, "[2]": {"biological_target": "Neu5Ac(a2-6)Gal(b1-4)GlcNAc(b1-2)Man(a1-3)[Man(a1-6)]Man(b1-4)GlcNAc(b1-4)GlcNAc", "procedure,_shortened": "as §1"}, "[3]": {"biological_target": "Neu5Ac(a2-6)Gal(b1-4)GlcNAc(b1-2)Man(a1-3)[Neu5Ac(a2-3)Gal(b1-4)GlcNAc(b1-2)Man(a1-6)]Man(b1-4)GlcNAc(b1-4)GlcNAc", "procedure,_shortened": "as §1"}, "[4]": {"biological_target": "Neu5Ac(a2-6)Gal(b1-4)GlcNAc(b1-2)Man(a1-3)[Neu5Ac(a2-6)Gal(b1-4)GlcNAc(b1-2)Man(a1-6)]Man(b1-4)GlcNAc(b1-4)GlcNAc", "procedure,_shortened": "as §1"}, "[5]": {"biological_target": "Neu5Ac(a2-6)Gal(b1-4)GlcNAc(b1-2)Man(a1-3)[Neu5Ac(a2-6)Gal(b1-4)GlcNAc(b1-2)Man(a1-6)]Man(b1-4)GlcNAc(b1-4)[Fuc(a1-6)]GlcNAc", "procedure,_shortened": "as §1"}, "[6]": {"biological_target": "Neu5Ac(a2-6)Gal(b1-4)GlcNAc(b1-2)Man(a1-6)Man(b1-4)GlcNAc(b1-4)GlcNAc", "procedure,_shortened": "as §1"}, "[7]": {"biological_target": "Neu5Ac(a2-6)Gal(b1-4)GlcNAc(b1-2)Man(a1-6)[Gal(b1-4)GlcNAc(b1-2)Man(a1-3)]Man(b1-4)GlcNAc(b1-4)GlcNAc", "procedure,_shortened": "as §1"}, "[8]": {"biological_target": "Neu5Ac(a2-6)Gal(b1-4)GlcNAc(b1-2)Man(a1-6)[GlcNAc(b1-2)Man(a1-3)]Man(b1-4)GlcNAc(b1-4)GlcNAc", "procedure,_shortened": "as §1"}, "[9]": {"biological_target": "Neu5Ac(a2-6)Gal(b1-4)GlcNAc(b1-2)Man(a1-6)[Man(a1-3)]Man(b1-4)GlcNAc(b1-4)GlcNAc", "procedure,_shortened": "as §1"}, "[10]": {"biological_target": "Neu5Ac(a2-6)Gal(b1-4)GlcNAc(b1-2)[Neu5Ac(a2-6)Gal(b1-4)GlcNAc(b1-4)]Man(a1-3)[GlcNAc(b1-4)][Neu5Ac(a2-6)Gal(b1-4)GlcNAc(b1-2)[Neu5Ac(a2-6)Gal(b1-4)GlcNAc(b1-6)]Man(a1-6)]Man(b1-4)GlcNAc(b1-4)GlcNAc", "procedure,_shortened": "as §1"}, "[11]": {"biological_target": "Neu5Ac(a2-6)Gal(b1-4)GlcNAc(b1-2)[Neu5Ac(a2-6)Gal(b1-4)GlcNAc(b1-4)]Man(a1-3)[GlcNAc(b1-4)][Neu5Ac(a2-6)Gal(b1-4)GlcNAc(b1-4)Man(a1-6)]Man(b1-4)GlcNAc(b1-4)GlcNAc", "procedure,_shortened": "as §1"}, "[12]": {"biological_target": "Neu5Ac(a2-6)Gal(b1-4)GlcNAc(b1-2)[Neu5Ac(a2-6)Gal(b1-4)GlcNAc(b1-6)]Man(a1-6)[Neu5Ac(a2-6)Gal(b1-4)GlcNAc(b1-2)Man(a1-3)][GlcNAc(b1-4)]Man(b1-4)GlcNAc(b1-4)GlcNAc", "procedure,_shortened": "as §1"}, "[13]": {"biological_target": "Neu5Ac(a2-6)Gal(b1-4)GlcNAc(b1-3)Gal(b1-3)GlcNAc", "procedure,_shortened": "as §1"}, "[14]": {"biological_target": "Neu5Ac(a2-6)Gal(b1-4)GlcNAc(b1-3)Gal(b1-4)GlcNAc", "procedure,_shortened": "as §1"}, "[15]": {"biological_target": "Neu5Ac(a2-6)Gal(b1-4)GlcNAc(b1-3)Gal(b1-4)GlcNAc(b1-2)Man(a1-3)[Neu5Ac(a2-6)Gal(b1-4)GlcNAc(b1-3)Gal(b1-4)GlcNAc(b1-2)Man(a1-6)]GalNAc", "procedure,_shortened": "as §1"}, "[16]": {"biological_target": "Neu5Ac(a2-6)Gal(b1-4)GlcNAc(b1-3)Gal(b1-4)GlcNAc(b1-3)Gal(b1-4)GlcNAc", "procedure,_shortened": "as §1"}, "[17]": {"biological_target": "Neu5Ac(a2-6)Gal(b1-4)GlcNAc(b1-3)Gal(b1-4)GlcNAc(b1-3)Gal(b1-4)GlcNAc(b1-2)Man(a1-3)[Neu5Ac(a2-6)Gal(b1-4)GlcNAc(b1-3)Gal(b1-4)GlcNAc(b1-3)Gal(b1-4)GlcNAc(b1-2)Man(a1-6)]GalNAc", "procedure,_shortened": "as §1"}, "[18]": {"biological_target": "Neu5Ac(a2-6)Gal(b1-4)GlcNAc(b1-3)Gal(b1-4)GlcNAc(b1-3)GalNAc", "procedure,_shortened": "as §1"}, "[19]": {"biological_target": "Neu5Ac(a2-6)Gal(b1-4)GlcNAc(b1-3)Gal(b1-4)GlcNAc(b1-3)[Neu5Ac(a2-6)Gal(b1-4)GlcNAc(b1-3)Gal(b1-4)GlcNAc(b1-6)]GalNAc", "procedure,_shortened": "as §1"}, "[20]": {"biological_target": "Neu5Ac(a2-6)Gal(b1-4)GlcNAc(b1-3)Gal(b1-4)GlcNAc(b1-6)[Gal(b1-3)]GalNAc", "procedure,_shortened": "as §1"}, "[21]": {"biological_target": "Neu5Ac(a2-6)Gal(b1-4)GlcNAc(b1-3)Gal(b1-4)[Fuc(a1-3)]GlcNAc(b1-3)Gal(b1-4)[Fuc(a1-3)]GlcNAc", "procedure,_shortened": "as §1"}, "[22]": {"biological_target": "Neu5Ac(a2-6)Gal(b1-4)GlcNAc(b1-3)GalNAc", "procedure,_shortened": "as §1"}, "[23]": {"biological_target": "Neu5Ac(a2-6)Gal(b1-4)GlcNAc(b1-3)[Neu5Ac(a2-6)Gal(b1-4)GlcNAc(b1-6)]GalNAc", "procedure,_shortened": "as §1"}, "[24]": {"biological_target": "Neu5Ac(a2-6)Gal(b1-4)GlcNAc(b1-6)GalNAc", "procedure,_shortened": "as §1"}, "[25]": {"biological_target": "Neu5Ac(a2-6)Gal(b1-4)GlcNAc(b1-6)[Gal(b1-3)GlcNAc(b1-3)]Gal(b1-4)Glc", "procedure,_shortened": "as §1"}, "[26]": {"biological_target": "Neu5Ac(a2-6)Gal(b1-4)GlcNAc(b1-6)[Gal(b1-3)]GalNAc", "procedure,_shortened": "as §1"}, "[27]": {"biological_target": "Neu5Ac(a2-6)Gal(b1-4)GlcNAc6S", "procedure,_shortened": "as §1"}, "Neu5Ac(a2-6)GalNAc": {"biological_target": "Neu5Ac(a2-6)GalNAc", "procedure,_shortened": "as §1"}, "[28]": {"biological_target": "Neu5Ac(a2-6)GalNAc(b1-4)GlcNAc", "procedure,_shortened": "as §1"}, "[29]": {"biological_target": "Neu5Ac(a2-6)GalNAc(b1-4)GlcNAc6S", "procedure,_shortened": "as §1"}, "[30]": {"biological_target": "Neu5Ac(a2-6)GlcNAc(b1-4)GlcNAc", "procedure,_shortened": "as §1"}}, "note": "The list shows a part of the results.", "data": [{"binder": "B1", "values": [{"measurement": "glycan array binding signal (z-score)", "setting": "[1]", "value": -0.161}, {"measurement": "glycan array binding signal (z-score)", "setting": "[2]", "value": -0.157}, {"measurement": "glycan array binding signal (z-score)", "setting": "[3]", "value": -0.156}, {"measurement": "glycan array binding signal (z-score)", "setting": "[4]", "value": -0.153}, {"measurement": "glycan array binding signal (z-score)", "setting": "[5]", "value": -0.145}, {"measurement": "glycan array binding signal (z-score)", "setting": "[6]", "value": -0.155}, {"measurement": "glycan array binding signal (z-score)", "setting": "[7]", "value": -0.159}, {"measurement": "glycan array binding signal (z-score)", "setting": "[8]", "value": -0.157}, {"measurement": "glycan array binding signal (z-score)", "setting": "[9]", "value": -0.152}, {"measurement": "glycan array binding signal (z-score)", "setting": "[10]", "value": -0.155}, {"measurement": "glycan array binding signal (z-score)", "setting": "[11]", "value": -0.158}, {"measurement": "glycan array binding signal (z-score)", "setting": "[12]", "value": -0.155}, {"measurement": "glycan array binding signal (z-score)", "setting": "[13]", "value": -0.155}, {"measurement": "glycan array binding signal (z-score)", "setting": "[14]", "value": -0.154}, {"measurement": "glycan array binding signal (z-score)", "setting": "[15]", "value": -0.129}, {"measurement": "glycan array binding signal (z-score)", "setting": "[16]", "value": -0.146}, {"measurement": "glycan array binding signal (z-score)", "setting": "[17]", "value": -0.134}, {"measurement": "glycan array binding signal (z-score)", "setting": "[18]", "value": -0.152}, {"measurement": "glycan array binding signal (z-score)", "setting": "[19]", "value": -0.151}, {"measurement": "glycan array binding signal (z-score)", "setting": "[20]", "value": -0.154}, {"measurement": "glycan array binding signal (z-score)", "setting": "[21]", "value": -0.153}, {"measurement": "glycan array binding signal (z-score)", "setting": "[22]", "value": -0.152}, {"measurement": "glycan array binding signal (z-score)", "setting": "[23]", "value": -0.154}, {"measurement": "glycan array binding signal (z-score)", "setting": "[24]", "value": -0.151}, {"measurement": "glycan array binding signal (z-score)", "setting": "[25]", "value": -0.154}, {"measurement": "glycan array binding signal (z-score)", "setting": "[26]", "value": -0.158}, {"measurement": "glycan array binding signal (z-score)", "setting": "[27]", "value": -0.153}, {"measurement": "glycan array binding signal (z-score)", "setting": "Neu5Ac(a2-6)GalNAc", "value": -0.157}, {"measurement": "glycan array binding signal (z-score)", "setting": "[28]", "value": -0.16}, {"measurement": "glycan array binding signal (z-score)", "setting": "[29]", "value": -0.151}, {"measurement": "glycan array binding signal (z-score)", "setting": "[30]", "value": -0.153}]}]}
